Assay results: the BET-seq Pho4 binding data (Le et al. 2018)
The other results are listed elsewhere or left out. These are noisy estimates, calculated here from bound and input reads.

molecular target: T1, Pho4 (S. cerevisiae) (UniProt P07270); test: relative binding free energy (BET-seq); higher = weaker binding; settings: reference: library average
T1 sequence: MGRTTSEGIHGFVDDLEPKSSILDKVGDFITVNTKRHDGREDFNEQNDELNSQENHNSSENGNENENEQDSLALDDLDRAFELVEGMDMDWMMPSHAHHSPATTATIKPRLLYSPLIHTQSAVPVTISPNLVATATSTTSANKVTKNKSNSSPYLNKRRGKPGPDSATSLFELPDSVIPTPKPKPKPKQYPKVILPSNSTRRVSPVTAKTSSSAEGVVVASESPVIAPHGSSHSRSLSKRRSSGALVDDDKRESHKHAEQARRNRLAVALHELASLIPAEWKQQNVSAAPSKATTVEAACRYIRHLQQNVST

Row | Sequence | relative binding free energy [kcal/mol]
1 | TATGCCACGTGGTGGA | -0.17
2 | GGAGGCACGTGTTCTG | -0.19
3 | CGATTCACGTGTTAGG | 0.1
4 | GGTAGCACGTGGGCTC | -0.15
5 | GAGGCCACGTGTGCGG | 0.02
6 | TTATACACGTGTGTAG | 0.05
7 | TTGATCACGTGGTAGA | 0.17
8 | TTTGGCACGTGTAGGG | -0.01
9 | ACAGGCACGTGGTGGC | -0.01
10 | CTCGCCACGTGGGGGG | -0.23
11 | AGGTACACGTGCATGT | 0.03
12 | ATTGTCACGTGGGTAG | 0.01
13 | AGTCGCACGTGGAGGC | 0.02
14 | AGTTTCACGTGAAGGA | 0.44
15 | GTGTTCACGTGGACGG | 0.23
16 | TTTAGCACGTGTCAGT | -0.26
17 | ATGGTCACGTGGTGCA | 0.04
18 | TTGGTCACGTGAGAAA | 0.22
19 | AGGGTCACGTGCGCAT | -0.02
20 | GTAAGCACGTGGATGC | 0
21 | TGGCACACGTGGGAGA | 0.18
22 | ATCGGCACGTGGTATG | -0.28
23 | GTTATCACGTGTGTAT | 0.1

Row | Sequence | relative binding free energy [kcal/mol]
24 | TGGTGCACGTGTATTT | 0.14
25 | TGGTCCACGTGAGGCG | 0.24
26 | TTTGTCACGTGACTCG | 0.24
27 | GTGTGCACGTGGAGGA | 0.14
28 | CTAGTCACGTGGGCAG | -0.01
29 | AGCTACACGTGTGGTA | 0.15
30 | AAGTGCACGTGGGGGC | -0.14
31 | GGGTCCACGTGACGGG | 0.12
32 | TATTACACGTGGGTTG | 0
33 | GAGGTCACGTGGTCAG | -0.01
34 | CGGTACACGTGCAGGT | 0.09
35 | GGTGACACGTGGGTCT | 0.02
36 | GGCGGCACGTGTTGGC | -0.05
37 | CGATGCACGTGTGTGG | -0.01
38 | GGGGGCACGTGAAGAG | 0.27
39 | GAGCTCACGTGAGGAG | 0.52
40 | TGGAACACGTGTTAAG | 0.2
41 | TTAATCACGTGCTGGG | 0.1
42 | CCAGGCACGTGTAGTG | -0.01
43 | TTTAACACGTGTTCGG | -0.03
44 | TACCTCACGTGGGGTT | 0.24
45 | GGGTGCACGTGTGAGT | 0.19
46 | GTGTGCACGTGGCAAG | -0.08

Row | Sequence | relative binding free energy [kcal/mol]
47 | AAGGGCACGTGTGCGT | -0.2
48 | TCTGGCACGTGGTCGT | -0.26
49 | AGGTGCACGTGACGGT | 0.05
50 | GAAGGCACGTGGGAAG | -0.14
51 | GGTGGCACGTGGAGTG | -0.05
52 | ATTGACACGTGTTTCT | 0.02
53 | ATTGCCACGTGAGGTG | 0.28
54 | GTGCGCACGTGGTGCT | -0.06
55 | GGGGGCACGTGAGGCA | 0.03
56 | TTAGGCACGTGAGGTT | 0.05
57 | GTTAACACGTGTGGTT | 0.17
58 | TAAGTCACGTGTTTGA | 0.14
59 | TTGCGCACGTGGAGCT | -0.11
60 | GTTCGCACGTGGGGCG | -0.17
61 | TGTTTCACGTGTGACC | 0.35
62 | GCTATCACGTGTGTGT | 0.27
63 | CGATTCACGTGGCAGG | 0.38
64 | ATTTTCACGTGGCGTA | 0.05
65 | AGATGCACGTGGAGGA | -0.03
66 | TTGTACACGTGTTGAC | 0.05
67 | TGAGTCACGTGATTGC | 0.12
68 | TGCAGCACGTGTGTAT | -0.06
69 | TTCTTCACGTGTGATT | 0.3

Row | Sequence | relative binding free energy [kcal/mol]
70 | GTAGTCACGTGCCGGG | 0.11
71 | TTGGGCACGTGCTTCG | -0.1
72 | GGGGGCACGTGTAACG | -0.02
73 | TTTAACACGTGAACGG | 0.21
74 | CAATACACGTGTATGT | 0.14
75 | GTTGCCACGTGTGTTC | 0.03
76 | GTGTCCACGTGTCGGT | 0.04
77 | GGATTCACGTGGGGCG | 0.1
78 | TGCTGCACGTGTGGGA | 0.25
79 | TACTTCACGTGGTTGA | 0.22
80 | AAGTTCACGTGGATGT | 0.23
81 | TCAAGCACGTGGGTGG | -0.21
82 | GGAGTCACGTGATGAT | 0.32
83 | AAGTTCACGTGGTCAG | 0.25
84 | AGTGGCACGTGCTCGT | -0.28
85 | ATTGTCACGTGTGTCC | 0.18
86 | ATTTTCACGTGAAAGG | 0.36
87 | CTAGGCACGTGCGGTA | 0.01
88 | AGCGTCACGTGAAGTG | 0.3
89 | AGGTTCACGTGGAAGG | 0.29
90 | ATGGTCACGTGTAATG | 0.28
91 | AATTGCACGTGTGAGA | 0.09
92 | TTTTACACGTGTGATT | 0.21

Row | Sequence | relative binding free energy [kcal/mol]
93 | GCTTTCACGTGTTATT | 0.15
94 | GCTGGCACGTGGTGGT | -0.05
95 | GTTTGCACGTGGTTCT | 0.1
96 | TTTGACACGTGAAGTG | 0.21
97 | TTATACACGTGTGGTC | 0.02
98 | TAGTGCACGTGATGGA | 0.08
99 | AAATTCACGTGAAAGT | 0.41
100 | AATTGCACGTGATGTG | 0.12
101 | TGGATCACGTGCGGTA | 0.12
102 | TTTGGCACGTGTTGGG | -0.04
103 | GTGTCCACGTGGGAAT | -0.01
104 | ATTGACACGTGATCTG | 0.1
105 | TAGCGCACGTGCGTGG | 0
106 | TTGGGCACGTGATGAT | -0.05
107 | GAGCACACGTGTTGGT | 0.14
108 | TGCCACACGTGGGTTT | -0.03
109 | AGGATCACGTGCGGTG | 0.19
110 | TGGTGCACGTGCAGGC | -0.27
111 | TTACTCACGTGATGGT | 0.22
112 | AAGAGCACGTGGAGTT | -0.06
113 | GGTTGCACGTGATTTT | 0.28
114 | GATTTCACGTGGTAGT | 0.26
115 | AGTGGCACGTGACGGC | -0.08
